Patent US20230080534A1, “SEMG2 ANTIBODY AND USE THEREOF” (SHANGHAI BIOTROY BIOTECHNIQUE CO., LTD., priority 2020, published 2023)

Tests used:
[1] = biological target: T1, binding between SEMG2 and CD27 (Homo sapiens, UniProt Q02383); assay: Antibody blocking ELISA of SEMG2 binding to CD27-Fc; conditions: antibody 10 μg/mL
T1 sequence (Q02383 24-582): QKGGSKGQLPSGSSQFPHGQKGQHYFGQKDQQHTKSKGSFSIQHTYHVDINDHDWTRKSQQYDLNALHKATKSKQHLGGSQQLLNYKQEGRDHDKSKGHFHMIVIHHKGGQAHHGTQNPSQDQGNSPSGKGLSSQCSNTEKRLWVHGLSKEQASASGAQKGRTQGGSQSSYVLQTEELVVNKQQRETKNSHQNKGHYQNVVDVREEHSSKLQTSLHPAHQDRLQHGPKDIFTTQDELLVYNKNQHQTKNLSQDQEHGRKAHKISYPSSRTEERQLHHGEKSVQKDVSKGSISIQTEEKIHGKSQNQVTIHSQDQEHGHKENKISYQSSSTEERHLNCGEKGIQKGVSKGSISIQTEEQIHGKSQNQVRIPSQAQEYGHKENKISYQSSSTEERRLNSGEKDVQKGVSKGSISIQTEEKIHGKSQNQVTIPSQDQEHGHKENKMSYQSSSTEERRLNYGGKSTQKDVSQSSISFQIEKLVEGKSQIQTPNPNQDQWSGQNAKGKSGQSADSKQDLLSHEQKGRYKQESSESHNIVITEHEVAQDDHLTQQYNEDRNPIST
Source text: Because SEMG2 (497-509) sequence fragment is the key epitope of SEMG2 binding to CD27, and has a relatively short sequence, so SEMG2 (497-509) was used as an immunogen to prepare antibodies, which is theoretically easier to obtain functional antibody molecules with the function of blocking the binding between SEMG2 and CD27 than using full-length SEMG2 to prepare antibodies. For direct comparison, the differences in effective concentration of producing antibody by the two methods were verified using ELISA in the examples. Antibodies produced with SEMG2 (497-509) as immunogen and antibodies produced with full-length SEMG2 were added into the enzyme-linked immunosorbent assay (ELISA) reaction system at different concentrations (10^-2, 10^-1, 10^0, 10^1, 10^2, 10^3, 10^4 μg/mL), and the ELISA binding values were measured. […] (5) After washing with PBST for 5 times, 20 min after developing with chromogenic agent, the A450 absorption value was read using the microplate reader. […]
Further, the effects of different antibodies on the binding between SEMG2 and CD27 were compared under the condition of the same antibody concentration. In the ELISA, the same concentration (10 μg/mL) of antibody was used, and the strength of the binding between SEMG2 and CD27 was measured. […]

[2] = test system: A375 human melanoma cells; assay: Tumor cell killing by activated PBMC, caspase-3/7 apoptosis; type: cell-based; conditions: A375, SEMG2-positive, co-culture with activated PBMC 10:1
Procedure: (§1) To test the above hypothesis, the effects of different epitope-specific antibodies on tumor cell killing by activated PBMC were compared. Specifically, A375 human melanoma and LOVO human colorectal cancer cells highly expressing SEMG2 were seeded in 96-well plate. Human peripheral blood mononuclear cells (PBMC; #70025, Stem Cell) were activated with 100 ng/mL of CD3 antibody, 100 ng/mL, of CD28 antibody, and 1.0 ng/mL of IL2 (#317303; #302913; #589102, BioLegend), respectively, and co-cultured with the above tumor cells at a ratio of 10:1 in presence of fluorescent caspase-3/7 substrate (#4440, Essen Bioscience). After 1.0 hours, cells were observed under fluorescence microscope.
(§2) To verify the above hypothesis, tumor cells with high SEMG2 expression (A375, LOVO) and SEMG2-negative tumor cells (DLD1, NCM460 and NCI-H1975) were selected. Different antibodies (irrelevant mouse IgG antibodies, MM02 or MM05 antibodies) were added during the PBMC killing experiments for the tumor cells.
(§3) To verify the effect of the human antibodies on the function of activated PBMC on tumor cell killing, A375 and LOVO cells were co-cultured with activated PBMC, and H88-93, H88-96, or H88-67 antibody was added at the same time, and the apoptosis ratio of tumor cells were detected.

[3] = test system: LOVO human colorectal cancer cells; assay: as above; type: cell-based; conditions: SEMG2-positive, co-culture with activated PBMC 10:1
Procedure: as §1, §2, §3

SEMG2(497-509) fragment = biological target: T2, SEMG2(497-509) fragment (Homo sapiens, UniProt Q02383); assay: ELISA binding of antibodies to SEMG2(497-509) epitope
T2 construct: SEMG2(497-509) fragment and SEMG2(563-574) fragment were immobilized on the ELISA plate; made in house; host or cells: chemical synthesis
Procedure: Specifically, SEMG2 full-length protein (1-582), SEMG2(354-403) fragment, SEMG2(442-453) fragment, SEMG2(497-509) fragment and SEMG2(563-574) fragment were immobilized on the ELISA plate, and the same concentration of antibodies (MM02, MM05, MM07, MM08, MM13, MM14, HPA042767 and HPA042835) were added. Anti-mouse or anti-rabbit secondary antibodies were then used to detect the corresponding bound antibodies. MM02, MM05, MM07, MM08, MM13, and MM14 all bound to SEMG2(497509) epitope, HPA042767 bound to SEMG2 (354-403) epitope, and HPA042835 bound to […], while none of the antibodies bound to SEMG2 (442-453) control fragment.
Specifically, the preparation of polypeptide antigens and the screening of human natural antibody library were firstly performed. The SEMG2(497-509) polypeptide was synthesized and coupled to BSA and KLH, respectively, and screened in a fully human phage display antibody library. ELISA was used to select clones that bind to antigenic epitopes for preliminary screening. […] The binding ability and blocking function tests were performed after purification, that is, the effect of the antibody on binding between SEMG2 and CD27 was determined by the ELISA experiment.

B1: H88-67: fully human antibody from phage library against SEMG2(497-509), VH SEQ ID NO:56, VL SEQ ID NO:59 (antibody, V domains shown)
VH: QVQLLESGGGVVQPGRSLRLSCAASGFTFSSYAMHWVRQAPGKGLEWVAVISYDGSNKYYADSVKGRFTISRDNSKNTLYLQMNSLRAEDTAVYYCARMDGSGSPDYWGQGTLVTVSS
VL: [about 100 residues left out here]PAFGQGTKVEIK
modifications: UNSURE (1)..(118) VH; UNSURE (1)..(112) VL
effect on the binding between SEMG2 and CD27 [1]: inhibited the binding
apoptosis tumor cell ratio / killing by activated PBMC [2]: significantly promote the killing
apoptosis tumor cell ratio / killing by activated PBMC [3]: significantly promote the killing
binding to SEMG2(497-509) epitope (SEMG2(497-509) fragment): bind
